Experiment in all cases: protein-binding microarray (PBM)
Conditions in all cases: PBM: ~300 nM protein, 6 mM HEPES pH 7.8, 80 mM KCl, 0.5 mM EDTA, 0.5 mM EGTA, 6% glycerol, 35 ng/ul poly-dIdC, 1% milk, 1 h, room temperature; Ap Aiptasia and Nv Nematostella (sea anemones) / Co Capsaspora / Aq Amphimedon (sponge) / Dm Drosophila / Hu human; RHD is the Rel homology domain; high values mean tight binding; most listed sequences are background and not binding sites; double strand, one strand shown

The target in experiment [1] is T1, GST-Nv-NF-kB (Cys allele) (UniProt E5G601).
T1 sequence: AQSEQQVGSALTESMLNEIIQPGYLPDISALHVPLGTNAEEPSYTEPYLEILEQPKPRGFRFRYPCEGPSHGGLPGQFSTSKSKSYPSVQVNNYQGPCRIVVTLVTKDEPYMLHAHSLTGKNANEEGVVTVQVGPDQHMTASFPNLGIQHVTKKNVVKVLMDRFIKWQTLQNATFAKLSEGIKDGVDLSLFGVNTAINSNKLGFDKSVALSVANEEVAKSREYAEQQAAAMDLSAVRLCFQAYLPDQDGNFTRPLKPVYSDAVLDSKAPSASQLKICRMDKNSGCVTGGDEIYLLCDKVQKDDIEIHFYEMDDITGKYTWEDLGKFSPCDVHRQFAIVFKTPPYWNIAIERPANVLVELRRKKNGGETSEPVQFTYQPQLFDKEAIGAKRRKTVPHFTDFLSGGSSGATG

The target in a further experiment is T2, GST-Co-NF-kB (UniProt F1ARL5).
T2 sequence: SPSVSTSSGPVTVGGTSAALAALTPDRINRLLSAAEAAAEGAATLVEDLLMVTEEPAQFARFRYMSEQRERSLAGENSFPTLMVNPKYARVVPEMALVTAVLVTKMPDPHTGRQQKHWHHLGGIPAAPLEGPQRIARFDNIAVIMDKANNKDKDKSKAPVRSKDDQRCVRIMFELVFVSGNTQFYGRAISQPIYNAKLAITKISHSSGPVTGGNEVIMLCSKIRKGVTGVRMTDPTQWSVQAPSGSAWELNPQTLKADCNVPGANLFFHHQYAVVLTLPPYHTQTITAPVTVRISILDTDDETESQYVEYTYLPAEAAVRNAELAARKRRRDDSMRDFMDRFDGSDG

Another experiment concerns the target T3, GST-Aq-NF-kB (UniProt A9Y5G7).
T3 sequence: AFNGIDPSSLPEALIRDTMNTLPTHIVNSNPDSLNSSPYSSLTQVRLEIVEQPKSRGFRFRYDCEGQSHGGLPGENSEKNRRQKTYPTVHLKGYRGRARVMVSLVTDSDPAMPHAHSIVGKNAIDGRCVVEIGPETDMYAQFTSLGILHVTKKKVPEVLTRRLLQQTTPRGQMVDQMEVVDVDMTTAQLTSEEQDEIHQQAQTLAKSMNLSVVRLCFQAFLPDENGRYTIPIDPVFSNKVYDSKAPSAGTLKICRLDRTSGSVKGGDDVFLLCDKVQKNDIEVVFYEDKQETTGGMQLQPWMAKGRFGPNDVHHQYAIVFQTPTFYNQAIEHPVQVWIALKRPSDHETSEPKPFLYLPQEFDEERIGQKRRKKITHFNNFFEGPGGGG

For a further experiment, the target named is T4, GST-Dm-Relish (UniProt Q94527).
T4 sequence: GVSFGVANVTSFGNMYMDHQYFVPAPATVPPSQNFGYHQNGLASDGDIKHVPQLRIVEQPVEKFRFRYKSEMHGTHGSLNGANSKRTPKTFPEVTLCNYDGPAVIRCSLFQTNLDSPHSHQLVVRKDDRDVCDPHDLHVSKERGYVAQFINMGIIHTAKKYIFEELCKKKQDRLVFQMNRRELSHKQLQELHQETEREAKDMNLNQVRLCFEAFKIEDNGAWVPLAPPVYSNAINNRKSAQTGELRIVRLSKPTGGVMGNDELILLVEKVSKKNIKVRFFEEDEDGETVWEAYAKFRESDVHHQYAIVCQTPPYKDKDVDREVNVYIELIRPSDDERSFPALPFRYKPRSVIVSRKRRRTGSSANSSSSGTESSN

This note sets out measurements from publication PMC5700166.

The entries are a selection whose mix differs from that of the whole data set. The list includes weakly bound sequences.

For “CCGATTAACATCAATTATCCCCCTGATGTTAATCGGGTCTTGATTCGCTTGACGCTGCTG”, the binding signal in experiment [1] stood at 5.48 z-score; with GST-Co-NF-kB, 7.87 z-score; in the experiment with GST-Aq-NF-kB, 5.15 z-score.
The corresponding values for “CCGATTAACATCAGGGGAACACATGATGTTAATCGGGTCTTGATTCGCTTGACGCTGCTG” are 5.02 z-score, 6.41 z-score and 4.1 z-score.
The corresponding values for “CCGATTAACATCAGGGAAACTAATGATGTTAATCGGGTCTTGATTCGCTTGACGCTGCTG” are 3.94 z-score, 3.69 z-score and 3.45 z-score.
Regarding “CCGATTAACATCAAATCGGGAAATGATGTTAATCGGGTCTTGATTCGCTTGACGCTGCTG”, the binding signal in experiment [1] worked out at 3.49 z-score; with GST-Co-NF-kB, 2 z-score; in the experiment with GST-Dm-Relish it was 0.283 z-score; with GST-Aq-NF-kB, 1.61 z-score.
“CCGATTAACATCACCCCGCATGCTGATGTTAATCGGGTCTTGATTCGCTTGACGCTGCTG”: the binding signal in experiment [1] stood at 0.374 z-score; with GST-Co-NF-kB, 1.97 z-score; with GST-Dm-Relish, 0.781 z-score; with GST-Aq-NF-kB it was 0.987 z-score.
As for “CCGATTAACATCAGGGGGTTACCTGATGTTAATCGGGTCTTGATTCGCTTGACGCTGCTG”, the binding signal stood at 6.63 z-score in experiment [1], 4.04 z-score with GST-Co-NF-kB and 8.61 z-score in the experiment with GST-Aq-NF-kB.
On to “CCGATTAACATCAGGATTACCCATGATGTTAATCGGGTCTTGATTCGCTTGACGCTGCTG”, for which the binding signal in experiment [1] was found to be 2.65 z-score; with GST-Co-NF-kB it was 1.67 z-score; with GST-Dm-Relish it was 2.52 z-score; in the experiment with GST-Aq-NF-kB it was 3.19 z-score.
For “CCGATTAACATCAGGACTTTCCCTGATGTTAATCGGGTCTTGATTCGCTTGACGCTGCTG”, the results for the binding signal (in experiment [1]; in the experiment with GST-Co-NF-kB; with GST-Aq-NF-kB) were 10.2 z-score, 1.87 z-score and 10.5 z-score, respectively.
The corresponding values for “CCGATTAACATCAATCTTCCCCCTGATGTTAATCGGGTCTTGATTCGCTTGACGCTGCTG” are 6.99 z-score, 9.37 z-score and 6.23 z-score.
Regarding “CCGATTAACATCAATCAGCGGGGTGATGTTAATCGGGTCTTGATTCGCTTGACGCTGCTG”, the binding signal in experiment [1] stood at 0.524 z-score; with GST-Co-NF-kB it was 2.43 z-score; with GST-Dm-Relish, 0.589 z-score; in the experiment with GST-Aq-NF-kB, 0.992 z-score.
The corresponding values for “CCGATTAACATCAAAAAGCCCCCTGATGTTAATCGGGTCTTGATTCGCTTGACGCTGCTG” are 9.31 z-score, 3.86 z-score, 9.41 z-score and 8.57 z-score.
Regarding “CCGATTAACATCAGGGAATTAACTGATGTTAATCGGGTCTTGATTCGCTTGACGCTGCTG”, the values for the binding signal (in experiment [1]; with GST-Co-NF-kB; with GST-Aq-NF-kB) were 4.33 z-score, 2.63 z-score and 5.19 z-score, respectively.
On the same counts, the results for “CCGATTAACATCAAATAAATCCCTGATGTTAATCGGGTCTTGATTCGCTTGACGCTGCTG” are 4.02 z-score, 1.92 z-score and 5.06 z-score.
The corresponding values for “CCGATTAACATCAAAAAAGCCCCTGATGTTAATCGGGTCTTGATTCGCTTGACGCTGCTG” are 11.4 z-score, 1.83 z-score and 8.77 z-score.
On the same counts, the results for “CCGATTAACATCAGGAAAGTCCCTGATGTTAATCGGGTCTTGATTCGCTTGACGCTGCTG” are 10.6 z-score, 0.673 z-score and 9.81 z-score.
For “CCGATTAACATCAGGAAATCCCATGATGTTAATCGGGTCTTGATTCGCTTGACGCTGCTG”, the binding signal in experiment [1] worked out at 3.68 z-score; with GST-Co-NF-kB, 1.17 z-score; in the experiment with GST-Aq-NF-kB, 5.09 z-score.
As to “CCGATTAACATCAGGAAAAACCCTGATGTTAATCGGGTCTTGATTCGCTTGACGCTGCTG”, the binding signal in experiment [1] worked out at 5.86 z-score; in the experiment with GST-Co-NF-kB, 0.801 z-score; with GST-Dm-Relish it was 6.52 z-score; with GST-Aq-NF-kB, 7.68 z-score.
The corresponding values for “CCGATTAACATCACAGTCCCCCCTGATGTTAATCGGGTCTTGATTCGCTTGACGCTGCTG” are 5.07 z-score, 5.62 z-score, 4.6 z-score and 4.63 z-score.
Turning to “CCGATTAACATCAGGGGATTACCTGATGTTAATCGGGTCTTGATTCGCTTGACGCTGCTG”, the binding signal is 10.5 z-score in experiment [1], 3.93 z-score in the experiment with GST-Co-NF-kB and 9.77 z-score with GST-Aq-NF-kB.
On the same counts, the results for “CCGATTAACATCAAGGGAGTTCCTGATGTTAATCGGGTCTTGATTCGCTTGACGCTGCTG” are 4.56 z-score, 1.22 z-score and 5.71 z-score.
The corresponding values for “CCGATTAACATCAAACAGCCCCCTGATGTTAATCGGGTCTTGATTCGCTTGACGCTGCTG” are 4.11 z-score, 1.91 z-score and 5.29 z-score.
The corresponding values for “CCGATTAACATCAACTTTTCCCCTGATGTTAATCGGGTCTTGATTCGCTTGACGCTGCTG” are 7.19 z-score, 9 z-score and 5.09 z-score.
As for “CCGATTAACATCAGGGGCGCCCCTGATGTTAATCGGGTCTTGATTCGCTTGACGCTGCTG”, the binding signal in experiment [1] stood at 5.37 z-score; with GST-Co-NF-kB, 3 z-score; with GST-Aq-NF-kB, 8.59 z-score.
The corresponding values for “CCGATTAACATCACGTAAATCCCTGATGTTAATCGGGTCTTGATTCGCTTGACGCTGCTG” are 2.8 z-score, 1.01 z-score and 3.3 z-score.
Consider “CCGATTAACATCAGGAATCCCAATGATGTTAATCGGGTCTTGATTCGCTTGACGCTGCTG”, for which the binding signal in experiment [1] worked out at 0.893 z-score; with GST-Co-NF-kB, 0.928 z-score; with GST-Dm-Relish it was 7.14 z-score; with GST-Aq-NF-kB, 1.48 z-score.
Turning to “CCGATTAACATCAAATATCCCCCTGATGTTAATCGGGTCTTGATTCGCTTGACGCTGCTG”, the binding signal in experiment [1] was 8.51 z-score; in the experiment with GST-Co-NF-kB, 8.39 z-score; with GST-Aq-NF-kB it was 6.9 z-score.
Turning to “CCGATTAACATCAGGCAATCCCATGATGTTAATCGGGTCTTGATTCGCTTGACGCTGCTG”, the binding signal is -0.214 z-score in experiment [1], 0.183 z-score with GST-Co-NF-kB and 1.38 z-score with GST-Aq-NF-kB.
Consider “CCGATTAACATCAAGTTTCCCCCTGATGTTAATCGGGTCTTGATTCGCTTGACGCTGCTG”, for which the binding signal in experiment [1] came out at 8.22 z-score; with GST-Co-NF-kB, 11.4 z-score; in the experiment with GST-Dm-Relish, 4.83 z-score; with GST-Aq-NF-kB it was 6.51 z-score.
Regarding “CCGATTAACATCAGGATATACCCTGATGTTAATCGGGTCTTGATTCGCTTGACGCTGCTG”, the binding signal stood at 2.26 z-score in experiment [1], 0.0477 z-score with GST-Co-NF-kB and 4.83 z-score in the experiment with GST-Aq-NF-kB.
